Data from PubChem BioAssay AID504332 (National Center for Advancing Translational Sciences (NCATS), 2011).
About 31,000 (8.9%) of roughly 350,000 compounds were called active. Inconclusive means that the source gave no clear call. Such entries were picked first, then a sample of the others. Calls come from the whole dose curve; as a rule, active = well fitted inhibition curve with a large enough effect; inconclusive = small, poorly fitted or top-dose-only effect; inactive = no such curve, though single readings can be large or run the other way. Where the call is inconclusive, the potency comes from a doubtful curve fit.

Biological target: Histone-lysine N-methyltransferase EHMT2 (Homo sapiens) (UniProt Q96KQ7)
Sequence of UniProt Q96KQ7 (Q96KQ7 whole entry, looked up): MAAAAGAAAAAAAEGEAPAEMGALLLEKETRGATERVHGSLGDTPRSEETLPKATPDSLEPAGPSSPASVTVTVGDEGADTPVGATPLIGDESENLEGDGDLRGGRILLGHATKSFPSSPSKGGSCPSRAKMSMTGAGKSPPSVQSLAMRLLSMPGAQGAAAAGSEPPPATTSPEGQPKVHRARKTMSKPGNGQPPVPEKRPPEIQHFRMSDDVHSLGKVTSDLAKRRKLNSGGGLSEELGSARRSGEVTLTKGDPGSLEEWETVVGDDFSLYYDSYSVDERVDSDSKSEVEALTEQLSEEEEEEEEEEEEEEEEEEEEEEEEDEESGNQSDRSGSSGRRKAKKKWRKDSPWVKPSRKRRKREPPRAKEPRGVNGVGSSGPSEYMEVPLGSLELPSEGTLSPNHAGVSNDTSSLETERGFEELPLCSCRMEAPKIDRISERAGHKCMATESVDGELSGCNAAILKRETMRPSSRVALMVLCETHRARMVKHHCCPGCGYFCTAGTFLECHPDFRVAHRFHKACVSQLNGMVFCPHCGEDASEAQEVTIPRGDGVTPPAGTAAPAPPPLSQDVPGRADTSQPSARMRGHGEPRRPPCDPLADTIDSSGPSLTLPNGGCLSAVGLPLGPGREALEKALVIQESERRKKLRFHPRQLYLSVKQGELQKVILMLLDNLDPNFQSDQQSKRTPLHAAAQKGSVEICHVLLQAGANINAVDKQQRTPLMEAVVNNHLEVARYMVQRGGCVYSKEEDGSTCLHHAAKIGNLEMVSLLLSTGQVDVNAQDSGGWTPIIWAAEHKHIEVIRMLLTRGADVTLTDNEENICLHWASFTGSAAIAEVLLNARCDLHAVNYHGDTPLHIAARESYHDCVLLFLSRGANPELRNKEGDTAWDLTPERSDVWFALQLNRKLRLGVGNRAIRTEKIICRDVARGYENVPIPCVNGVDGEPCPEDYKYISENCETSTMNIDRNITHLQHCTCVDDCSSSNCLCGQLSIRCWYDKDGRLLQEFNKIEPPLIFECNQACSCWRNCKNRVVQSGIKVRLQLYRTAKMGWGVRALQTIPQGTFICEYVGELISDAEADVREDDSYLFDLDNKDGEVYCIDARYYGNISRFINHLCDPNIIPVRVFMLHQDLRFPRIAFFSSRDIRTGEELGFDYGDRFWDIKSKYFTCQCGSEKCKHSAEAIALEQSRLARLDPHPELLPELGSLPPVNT
Experiment: qHTS Assay for Inhibitors of Histone Lysine Methyltransferase G9a; note: nearly all actives have a fitted effect of over 75% in size
Settings: G9a H3K9 monomethylation, AlphaScreen, 2 h; series mostly up to 59 µM
Method in brief: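 AlphaScreen detection with an anti-monomethyl H3K9 antibody quantified product after a 2 h room-temperature reaction containing 500 nM biotinylated H3K9 peptide, 20 µM SAM and 20 nM enzyme, which had been preincubated 15 min with compound.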
Potency is the fitted concentration of half-maximal effect; tags give direction and shape of the fitted curve.

Row | Structure (SMILES) | Potency
1 | Cc1ccc(NC(=O)C2CCCN2C(=O)c2cccs2)c(C)c1 (stereo not given) | inconclusive: 89.1 µM [inhibitor, single point]
2 | Cc1ccc(N(CC(=O)N2CCN(c3cc(C)ccc3C)CC2)S(=O)(=O)c2c(C)nn(C)c2C)cc1 | inconclusive: 17.8 µM [inhibitor, partial curve, poor fit]
3 | CC(=O)C1=C(C)Nc2ncnn2C1c1cccc(OCc2ccccc2)c1 (stereo not given) | inconclusive: 0.794 µM [inhibitor, partial curve, poor fit]
4 | O=[N+]([O-])c1nn(-c2ccccc2)n(O)c1=NC1CCN(Cc2ccccc2)CC1 | inactive
5 | CCn1cc2c(n1)-c1c(oc(C(=O)Nc3ccc(Br)cc3F)c1C)CC2 | inactive
6 | CC(C(=O)N1CCN(C2c3ccccc3-c3ccccc32)CC1)N1C(=O)c2ccccc2C1=O (stereo not given) | inactive
7 | COc1ccc(C(=O)ON=C2c3ccccc3-c3ccccc32)cc1OC | inactive
8 | Cc1cc(C)c(C)c(N=Nc2nc3ccccc3n2C)c1C | active: 11.2 µM
9 | CCOC(=O)NC(C(Cl)(Cl)Cl)S(=O)(=O)c1ccccc1 (stereo not given) | inconclusive: 14.1 µM [inhibitor, full curve, poor fit]
10 | Cc1ccc(/C=N/Nc2ccc3ccccc3n2)o1 | inactive
11 | CC(C)CN(CC(C)C)C(=O)c1cccc(S(=O)(=O)N2CCc3ccccc32)c1 | active: 79.4 µM
12 | COc1ccc(CCNC(=O)COc2ccc(S(=O)(=O)N3CCOCC3)cc2)cc1 | inconclusive: 50.1 µM [inhibitor, partial curve, poor fit]
13 | CN1C(=O)c2ccc(NC(=O)c3c(C(=O)O)cccc3[N+](=O)[O-])cc2C1=O | active: 39.8 µM
14 | CN(C)c1ccc(-c2nnn(CC(=O)Nc3ccccc3N3CCOCC3)n2)cc1 | active: 50.1 µM
15 | COc1ccc(Br)c(C(=O)N2CCN(S(=O)(=O)/C=C/c3ccccc3)CC2)c1 | inactive
16 | Cc1cc(Cl)ccc1-n1c(CCC(=O)O)ccc1-c1cccs1 | inconclusive: 11.2 µM [inhibitor, partial curve, poor fit]
17 | Cc1ccnc(NC(=O)Nc2ccc3c(c2)N(C)C(=O)CS3)c1 | inconclusive: 89.1 µM [inhibitor, single point]
18 | CCCCC1CCC(C(=O)N2CC(=O)Nc3ccc(Br)cc3C2c2ccc(F)cc2)CC1 (stereo not given) | inconclusive: 2.51 µM [inhibitor, partial curve]
19 | Cn1c(=O)c2c(nc(Sc3ncccn3)n2Cc2ccccc2Cl)n(C)c1=O | inconclusive: 0.141 µM [inhibitor, full curve, poor fit]
20 | O=C(c1ccco1)N1CCC(c2nc(-c3ccccc3Cl)no2)CC1 | inconclusive: 2 µM [inhibitor, full curve, poor fit]
21 | CC(=O)NC1C(=O)N(CCc2ccccc2)c2ccccc21 (stereo not given) | inconclusive: 17.8 µM [inhibitor, partial curve, poor fit]
22 | COc1ccc(CN2C(=O)c3ccccc3C2C(=O)NC2CCCC(C)C2C)c(OC)c1 (stereo not given) | inactive
23 | CS(=O)(=O)N(CC(=O)Nc1ccc2c(c1)OCO2)c1ccc(Cl)cc1 | inconclusive: 1.78 µM [inhibitor, partial curve, poor fit]

Row | Structure (SMILES) | Potency
24 | O=C(c1cccc(Cl)c1)N1CCN(S(=O)(=O)c2ccc(Cl)s2)CC1 | inactive
25 | Cc1cc(-c2n[nH]c(=S)n2/N=C/c2cccs2)n[nH]1 | active: 0.355 µM
26 | CN(C(=O)Cn1nc(Cc2cccnc2)c2ccccc2c1=O)c1cccc(C(F)(F)F)c1 | inactive
27 | CCCCC(c1nnnn1CCOC)N1CCN(CC)CC1 (stereo not given) | inconclusive: 39.8 µM [inhibitor, single point]
28 | CCCc1cc(=O)oc2c3c(ccc12)OCN(Cc1ccccc1OC)C3 | inactive
29 | O=C(Oc1ccc(Cl)cc1)c1ccc(N2CCOCC2)c([N+](=O)[O-])c1 | inconclusive: 31.6 µM [inhibitor, single point]
30 | CSc1ccc(CNC(=O)C(C)n2nc(C)c3c(C)n(-c4ccccc4)nc3c2=O)cc1 (stereo not given) | inconclusive: 35.5 µM [inhibitor, partial curve, poor fit]
31 | Cc1ccc(CNC(=O)c2ccc(N3CCCC3)c(NC(=O)Nc3ccc(C)cc3)c2)cc1 | inactive
32 | Cc1ccc(NC(=O)CN2C(=O)COc3ccc(S(=O)(=O)N4CCCCCC4)cc32)c(C)c1 | inactive
33 | Cc1ccc(CNC(=O)C(=O)Nc2c3c(nn2-c2ccc(F)cc2)CSC3)cc1 | inactive
34 | Clc1ccc2nc(CN3CCCc4ccccc43)cn2c1 | inconclusive: 5.62 µM [inhibitor, single point]
35 | CCN(CC)CCN1C(=O)C(O)=C(C(C)=O)C1c1ccccc1 (stereo not given) | inconclusive: 50.1 µM [inhibitor, partial curve]
36 | O=C(NNc1ccccc1Cl)C(O)(c1cccc(C(F)(F)F)c1)c1cccc(C(F)(F)F)c1 | inconclusive: 79.4 µM [inhibitor, single point]
37 | Cc1ccc(CCNC(=O)C2CCCN(S(=O)(=O)c3c(C)nn(C)c3C)C2)cc1 (stereo not given) | inactive
38 | N#CC1=C2SCN(Cc3ccccc3)CN2C(=O)CC1c1ccc2c(c1)OCO2 (stereo not given) | inconclusive: 1.78 µM [inhibitor, full curve, poor fit]
39 | CCOC(=O)c1ccc(N2C(=O)c3n[nH]c(-c4ccco4)c3C2c2ccc(C(=O)OC)cc2)cc1 (stereo not given) | inconclusive: 12.6 µM [inhibitor, partial curve]
40 | O=S(=O)(c1ccccc1)c1cnn(-c2ccccc2)c1-c1ccc(F)cc1 | inactive
41 | Cc1cc(C)cc(OCC(=O)Nc2cccc3cccnc23)c1 | inactive
42 | Cc1cccn2c(=O)c3cc(C(=O)NCCN4CCOCC4)c(=N)n(CCc4ccccc4)c3nc12 | inconclusive: 50.1 µM [inhibitor, partial curve, poor fit]
43 | COCc1[nH]nc2c1C1(C(=O)N(C)c3ccccc31)C(C#N)=C(N)O2 (stereo not given) | inconclusive: 1.26 µM [inhibitor, partial curve, poor fit]
44 | CCOC(=O)C1CCN(C(=S)Nc2cccc(C)c2C)CC1 | inactive
45 | O=C(CSc1nnnn1-c1ccccc1)NCc1ccco1 | inconclusive: 31.6 µM [inhibitor, single point]
